Measured values reported in PubChem BioAssay AID485294 (National Center for Advancing Translational Sciences (NCATS), 2010).
Out of some 370,000 compounds screened, about 150 (0.041%) were called active. Inconclusive results, whose numbers are uncertain, are shown with a selection of clear calls. Calls follow the shape of the dose curve; as a rule, active = well fitted inhibition curve with a large enough effect; inconclusive = small, poorly fitted or top-dose-only effect; inactive = flat fitted curve, though single readings scatter. Potencies of inconclusive entries are left out as doubtful fits.
Also: nearly all actives have a fitted effect of over 25% in size.
Potency is read from the fitted curve at half-maximal effect; tags tell the direction and shape of the fitted curve.

These molecules were tested against Beta-lactamase (Escherichia coli (strain K12)) (UniProt P00811) (assay: qHTS Inhibitors of AmpC Beta-Lactamase (assay with detergent)). Conditions: AmpC hydrolysis of nitrocefin, absorbance 480 nm, 0.01% Triton; series mostly up to 114 µM.
Sequence of UniProt P00811 (P00811 whole entry, looked up): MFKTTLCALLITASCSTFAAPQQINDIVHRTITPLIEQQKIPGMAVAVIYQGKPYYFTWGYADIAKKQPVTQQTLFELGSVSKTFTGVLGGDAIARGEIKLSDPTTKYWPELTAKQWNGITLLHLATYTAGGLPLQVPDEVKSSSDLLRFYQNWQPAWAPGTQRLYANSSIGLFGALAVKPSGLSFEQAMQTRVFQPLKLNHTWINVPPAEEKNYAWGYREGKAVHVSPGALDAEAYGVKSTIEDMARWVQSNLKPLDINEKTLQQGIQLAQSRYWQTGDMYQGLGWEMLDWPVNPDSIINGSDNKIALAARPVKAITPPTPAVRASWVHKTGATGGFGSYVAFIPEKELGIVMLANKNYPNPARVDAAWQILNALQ
Summary of the method: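 AmpC (5.3 nM in the dispensed reagent) in 20 mM phosphate pH 7.0 with 0.01% (detergent screen) or 0.0001% Triton X-100 was preincubated with compounds for 15 min at room temperature. Nitrocefin was then added from an 800 uM solution, and hydrolysis was followed at 480 nm.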
In the case of `CCCC(=O)OCCNc1cc(Sc2nc3ccccc3[nH]2)c2nonc2c1[N+](=O)[O-]`, the Potency is reported as inconclusive [inhibitor, full curve]. In the case of `N/C(=N\OCc1ccc([N+](=O)[O-])cc1)c1ccncc1`, the Potency is reported as “inactive”. In the case of `O=C(Cn1ncc2c(Cl)cccc21)NCc1cccc(Br)c1`, the Potency is reported as inconclusive [inhibitor, single point]. With `O=S1(=O)CC=C(CSc2nc3ccccc3[nH]2)C1` the Potency was inconclusive [inhibitor, full curve, poor fit]. `CSCCC(=O)N1CCCC(CO)(CCCc2ccccc2)C1` (configuration not stated) was tested, and the Potency was “inactive”. For `CC1CCN(S(=O)(=O)c2cc(C(=O)Nc3ccc(Br)cc3F)n(C)c2)CC1`, the Potency was inconclusive [inhibitor, single point]. With `O=C(CN(Cc1ccccc1F)S(=O)(=O)c1ccc(Cl)cc1)NCC1CCCO1` (configuration not stated) the Potency was inconclusive [inhibitor, partial curve]. For `CCSCCOC(=O)C1=C(C)NC(=O)NC1c1cccc(OC)c1OC` (configuration not stated), the Potency was inconclusive [inhibitor, full curve]. `CCOC(=O)c1cccc(NC(=O)Nc2ccc(OCC)cc2)c1` was tested, and the Potency was inconclusive [inhibitor, full curve, poor fit]. In the case of `COc1cc(C2C(C(=O)Nc3ccccc3)=C(C)Nc3nc(SCc4ccccc4F)nn32)cc(OC)c1OC` (configuration not stated), the Potency is reported as “inactive”. In the case of `CCOc1cccc(C=Nc2cc(C)cc(C)c2O)c1O`, the Potency is reported as inconclusive [inhibitor, full curve, poor fit]. `CCOc1ccccc1NS(=O)(=O)c1ccc2c(c1)n(C)c(=O)c(=O)n2C` was tested, and the Potency was inconclusive [inhibitor, full curve, poor fit]. For `CCN(CC(=O)NCc1ccc(Cl)cc1)C(=O)/C=C/c1cccs1`, the Potency was inconclusive [inhibitor, full curve, poor fit]. For `CSCCC(C(=O)NCc1cccs1)N1C(=O)c2ccccc2C1=O` (configuration not stated), the Potency was “inactive”. For `COc1ccc(C)cc1NC(=O)Cn1cc(S(=O)(=O)Cc2ccccc2Cl)c2ccccc21`, the Potency was “inactive”. In the case of `O=C(Nc1ccncc1)c1cc2ccccc2o1`, the Potency is reported as inconclusive [inhibitor, partial curve]. For `CC(=O)c1c(C)[nH]c(C(=O)COC(=O)C2CC2)c1C`, the Potency was inconclusive [inhibitor, partial curve]. With `CC(C)c1ccc(CNC(=O)C2CCCN2S(=O)(=O)c2ccccc2)cc1` (configuration not stated) the Potency was inconclusive [inhibitor, single point]. `CCCNC(=O)COC(=O)/C=C/c1cccc(F)c1` was tested, and the Potency was inconclusive [inhibitor, partial curve]. For `COCCN(C(=S)Nc1ccc(OC)cc1)C1CCN(C(C)=O)CC1`, the Potency was “inactive”. `COc1ccc(NS(=O)(=O)c2cccc(C(=O)NNC(=O)c3cccn3C)c2)cc1` was tested, and the Potency was inconclusive [inhibitor, single point]. With `COc1cc(C(=O)Nc2ccc(S(=O)(=O)N3CCCCC3C)cc2)cc(OC)c1OC` (configuration not stated) the Potency was inconclusive [inhibitor, partial curve, poor fit]. In the case of `CCCN1CCN(C(=O)c2oc3c(Cl)cccc3c2C)CC1`, the Potency is reported as inconclusive [inhibitor, partial curve]. In the case of `Cc1oc(-c2ccccc2F)nc1CS(=O)(=O)CC(=O)NCCN(C)C1CCCCC1`, the Potency is reported as inconclusive [inhibitor, full curve, poor fit]. For `CC1C(=O)C(C)C(c2ccc(Br)cc2)NC1c1ccc(Br)cc1` (configuration not stated), the Potency was “inactive”. With `O=C(CSc1nnc(-c2cccnc2)n1Cc1ccco1)Nc1nc(-c2ccc(F)cc2)cs1` the Potency was “inactive”. For `CC(Oc1ccccc1F)C(=O)NNC(=O)CC(C)c1ccccc1` (configuration not stated), the Potency was inconclusive [inhibitor, full curve]. For `CC1CN(C(=O)C2CCCCC2)C(C)CN1C(=O)C1CCCCC1` (configuration not stated), the Potency was inconclusive [inhibitor, partial curve]. In the case of `COC(=O)N1CC(c2ccccc2)CC1=O` (configuration not stated), the Potency is reported as inconclusive [inhibitor, partial curve, poor fit]. `CC(C)C[C@H](NC(=O)[C@H](Cc1ccccc1)n1c(=O)[nH]c2ccccc2c1=O)C(=O)N1CCC[C@@H]1C(=O)O` was tested, and the Potency was inconclusive [inhibitor, full curve]. In the case of `C[N+]1(C)CC2([N+](=O)[O-])CC=C(Oc3ccccc3)C([N+](=O)[O-])(C2)C1` (configuration not stated), the Potency is reported as inconclusive [inhibitor, full curve]. For `O=C(CNS(=O)(=O)c1ccc(F)c(Cl)c1)NCCc1ccccc1`, the Potency was inconclusive [inhibitor, full curve, poor fit]. In the case of `Oc1ccccc1N=N/C(=N/Nc1ccccc1O)c1ccccc1`, the Potency is reported as “inactive”. For `CCN(CC)CCOc1nc(C)nc2c1oc1ccccc12`, the Potency was inconclusive [inhibitor, full curve, poor fit]. In the case of `Cc1sc2c(c1C)C(=O)NC(c1cccc(O)c1)N2` (configuration not stated), the Potency is reported as inconclusive [inhibitor, full curve, poor fit]. `CC1CCCCN1S(=O)(=O)c1ccc(S(=O)(=O)N(Cc2ccccc2)Cc2ccco2)cc1` (configuration not stated) was tested, and the Potency was inconclusive [inhibitor, partial curve, poor fit]. `CN(CC(=O)Nc1ccccc1Cl)C(=O)c1cc(-c2cccs2)nn1-c1ccccc1` was tested, and the Potency was inconclusive [inhibitor, full curve, poor fit]. In the case of `O=C1CC(c2ccc(S(=O)(=O)NC3CC3)cc2)CN1` (configuration not stated), the Potency is reported as inconclusive [inhibitor, full curve, poor fit]. `Cc1c(Cc2ccccc2)c(=O)oc2cc(OCC(=O)N3CCC(C(=O)O)CC3)ccc12` was tested, and the Potency was inconclusive [inhibitor, full curve, poor fit]. With `COCCNC(=O)CN1CCN(Cc2cccc(Cl)c2)C1=O` the Potency was inconclusive [inhibitor, full curve, poor fit]. With `O=C(O)COc1ccc2c(c1)O/C(=C\c1ccco1)C2=O` the Potency was “inactive”. For `Cc1ccc(S(=O)(=O)CC(=O)N2CCCC2)cc1`, the Potency was inconclusive [inhibitor, full curve, poor fit].
